From paper PMC4336329 (PLoS ONE, 2015) come the findings set out here.

Hit rate of the full screen: of about 310,000 compounds, about 2,200 (0.71%) showed an effect of 50% or more. Effects have a minus sign here. The list shows a part of the results.

In this assay the target is human ether-à-go-go-related gene (hERG) potassium channel (human, UniProt Q12809). As to the kind of experiment: primary screen, population patch clamp on CHO cells stably expressing hERG.
Chain of human ether-à-go-go-related gene (hERG) potassium channel (Q12809 whole entry, looked up): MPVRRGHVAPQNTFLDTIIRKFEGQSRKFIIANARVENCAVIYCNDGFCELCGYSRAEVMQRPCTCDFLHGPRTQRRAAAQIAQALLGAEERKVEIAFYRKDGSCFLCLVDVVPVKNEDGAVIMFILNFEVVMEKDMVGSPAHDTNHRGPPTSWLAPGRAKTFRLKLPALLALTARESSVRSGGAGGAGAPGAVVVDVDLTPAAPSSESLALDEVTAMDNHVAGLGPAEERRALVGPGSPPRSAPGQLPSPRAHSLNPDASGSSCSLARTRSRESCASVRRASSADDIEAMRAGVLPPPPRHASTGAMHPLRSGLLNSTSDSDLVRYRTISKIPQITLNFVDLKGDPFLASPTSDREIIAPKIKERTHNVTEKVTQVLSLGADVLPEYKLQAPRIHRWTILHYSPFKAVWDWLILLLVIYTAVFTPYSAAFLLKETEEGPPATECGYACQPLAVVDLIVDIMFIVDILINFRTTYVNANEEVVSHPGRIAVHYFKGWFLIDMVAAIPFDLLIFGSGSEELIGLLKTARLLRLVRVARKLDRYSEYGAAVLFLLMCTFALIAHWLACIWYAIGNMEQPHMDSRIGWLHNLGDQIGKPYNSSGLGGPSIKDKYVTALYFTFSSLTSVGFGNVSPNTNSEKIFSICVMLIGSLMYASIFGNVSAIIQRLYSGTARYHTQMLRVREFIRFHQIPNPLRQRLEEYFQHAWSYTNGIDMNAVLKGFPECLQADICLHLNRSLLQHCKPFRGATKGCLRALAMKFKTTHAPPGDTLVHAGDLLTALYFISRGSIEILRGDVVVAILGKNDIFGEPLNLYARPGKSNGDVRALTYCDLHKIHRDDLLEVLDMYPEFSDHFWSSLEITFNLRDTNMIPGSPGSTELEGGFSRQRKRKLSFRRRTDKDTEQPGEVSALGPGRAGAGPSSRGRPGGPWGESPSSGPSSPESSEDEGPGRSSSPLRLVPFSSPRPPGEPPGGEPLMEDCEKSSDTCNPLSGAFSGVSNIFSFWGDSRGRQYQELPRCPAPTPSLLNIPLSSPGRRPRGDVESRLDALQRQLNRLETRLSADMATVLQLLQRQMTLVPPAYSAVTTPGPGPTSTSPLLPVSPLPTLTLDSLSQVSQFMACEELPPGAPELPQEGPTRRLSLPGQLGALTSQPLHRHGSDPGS
On to `O=C(CCc1nnc(Cc2ccc(-c3ccccc3)cc2)o1)N1CCCC1`, for which the “hERG current change (%, negative = inhibition) at 1uM” value worked out at 4.62%. With `CCCCOc1ccc(C(=O)N/C(=C/C=C/c2ccccc2)C(=O)N2CCOCC2)cc1`, the “hERG current change (%, negative = inhibition) at 1uM” value stood at 10.5%. The result for `Cc1cc(-c2cc(N)n(-c3ccccc3)n2)c(C)n1C1CCCC1` reads 4.93%; that for `O=C(Oc1ccc(-c2cnc3ccccc3n2)cc1)c1ccco1`, 6.39%; that for `Cn1cnnc1SCc1ccc(C(=O)O)cc1`, 9.77%. Then `CCN(CC)CC(=O)Nc1ccc(Oc2ccc(NC(=O)CN(CC)CC)cc2)cc1`, with 14.2%; and `CCN(C(=O)c1cccnc1SC)C12CC3CC(CC(C3)C1)C2`, with 12.5%; and `CCOC(=O)Cc1nnc(NC(=O)C2CCCCC2)s1`, with 4.85%. The result for `O=C(COC(=O)CN1C(=O)C2CCCCC2C1=O)Nc1c(Cl)cccc1Cl` (centres unmarked) reads -0.667%; that for `CCNC(=O)[C@H]1O[C@@H](n2cnc3c(N)nc(NCCc4ccc(CCC(=O)O)cc4)nc32)[C@H](O)[C@@H]1O.Cl`, 13.8%; that for `CCOC(=O)c1cnc2c(CC)cccc2c1NCCCN1CCOCC1`, -1.29%.

Consider `O=C(CCNC(=O)c1ccccc1Cl)Nc1cc(C(F)(F)F)ccc1N1CCCC1`, for which the “hERG current change (%, negative = inhibition) at 1uM” value was 7.21%. `O=S(=O)(c1cccc(Cl)c1)N1CCSc2ccccc21`: the “hERG current change (%, negative = inhibition) at 1uM” value was 1.42%. In the case of `CCn1cc(C(=O)N2CCn3c(nc4ccccc43)C2)c(=O)c2ccc(C)nc21`, the “hERG current change (%, negative = inhibition) at 1uM” value is 9.47%. Consider `CCOCCCn1c(=S)[nH]c2cc(C(=O)NCCCN(CC)CC)ccc2c1=O`, for which the “hERG current change (%, negative = inhibition) at 1uM” value is given as 8.5%. Regarding `CCN(CC)c1ccc(C=Nc2ccc(C#N)cc2)c(O)c1`, the “hERG current change (%, negative = inhibition) at 1uM” value came out at 2.25%.

For the compound `O=C(CCc1nc2ccccc2c(=O)[nH]1)NCc1cccc(Cl)c1`, the “hERG current change (%, negative = inhibition) at 1uM” value turned out to be 5.42%.

For the compound `CCC(=O)n1nc(NCc2ccccc2OC)nc1NCc1ccccc1OC`, the “hERG current change (%, negative = inhibition) at 1uM” value turned out to be 9.08%. Turning to `O=S(=O)(Nc1ccc2ccccc2n1)c1ccccc1`, the “hERG current change (%, negative = inhibition) at 1uM” value is reported as 12%.

`Cc1c(C(=O)NCCc2ccccc2)oc2ccc(S(=O)(=O)N3CCC4(CC3)OCCO4)cc12`: the “hERG current change (%, negative = inhibition) at 1uM” value is on record as -1.39%. On to `CCc1nnc(NC(=O)C2CCN(C(=O)c3ccco3)CC2)s1`, for which the “hERG current change (%, negative = inhibition) at 1uM” value is reported as 9.08%. On to `COc1ccc(N(C)S(=O)(=O)c2cccc(C(=O)N(C)Cc3ccc(C)o3)c2)cc1`, for which the “hERG current change (%, negative = inhibition) at 1uM” value is reported as -0.931%. Then `O=C(CCn1cnc2ccccc2c1=O)Nc1ccc(Cl)c(Cl)c1`, with 4.38%.

Turning to `COc1cc(CCCN2C(=S)NC[C@H]2Cc2ccc(O)cc2)cc(OC)c1OC`, the “hERG current change (%, negative = inhibition) at 1uM” value is -5.44%. Take `O=C(Nc1ccncc1)c1ccc2c(c1)C(=O)N(C1CCCCC1)C2=O`: the “hERG current change (%, negative = inhibition) at 1uM” value is 13.8%.

As to `CC(=O)c1cc2c(cc1NC(=O)Nc1cccc(Cl)c1)OCCO2`, the “hERG current change (%, negative = inhibition) at 1uM” value worked out at 4.57%. Turning to `CCC(CC)c1nnc(NC(=O)COc2ccc3c(C)cc(=O)oc3c2)s1`, the “hERG current change (%, negative = inhibition) at 1uM” value was 2.78%.

Consider `CCOC(=O)Nc1ccc2c(c1)N(C(=O)N1CCN(C)CC1)c1ccccc1CC2.Cl`, for which the “hERG current change (%, negative = inhibition) at 1uM” value was -0.261%. The result for `CCOc1ccccc1C(=O)Nc1cc(C(=O)NCC(C)C)ccc1Cl` reads 7.35%. For `CN(Cc1ccccn1)C(=O)C1CCC(=O)N(Cc2cccc(C(F)(F)F)c2)C1` (centres unmarked), the “hERG current change (%, negative = inhibition) at 1uM” value came out at 1.14%. On to `CCCCOc1ccc(-c2nnc(-c3cc[n+](C)cc3)o2)cc1.O=S(=O)([O-])c1ccccc1`, for which the “hERG current change (%, negative = inhibition) at 1uM” value came to 1.92%.

In the case of `COc1ccc(S(=O)(=O)N(C)Cc2ccc3c(c2)OCCO3)cc1`, the “hERG current change (%, negative = inhibition) at 1uM” value worked out at 8.71%. The result for `O=C(NNC(=O)c1cccnc1)Nc1ccccc1` reads 5.59%. In the case of `CCOP(=O)(OCC)C(NC(=O)Nc1ccccc1)C(N)=O` (centres unmarked), the “hERG current change (%, negative = inhibition) at 1uM” value came out at 11.8%. The result for `FC(F)Sc1ccc(NC(=S)NC2CCC(NC(=S)Nc3ccc(SC(F)F)cc3)CC2)cc1` (centres unmarked) reads 5.27%; that for `Cc1ccc(/C=C/C2=NN(Cc3ccccc3)C(=O)CC2)cc1`, 9.12%; that for `Cn1c(CNC(=O)c2ccc(Cl)cc2)nnc1SCC(=O)NC1=NCCS1`, 12.4%. As for `O=C(OCC(=O)N1CCN(c2ccccc2)CC1)c1ccccc1OC(F)F`, the “hERG current change (%, negative = inhibition) at 1uM” value turned out to be 11.5%. The result for `COCCn1c(SCc2cnc(-c3ccccc3)s2)nnc1-c1ccncc1` reads 5.84%. The result for `Cc1ccc(OCCNC(=O)CN2C(=O)NC3(CCCC3)C2=O)cc1` reads 12.2%; that for `CC(=O)NCC(=O)O.CN(C)CCC1c2ccc(Cl)cc2CCc2cccnc21` (centres unmarked), 3.16%; that for `Cn1c(=O)[nH]c(=O)c2c1nc(N)n2Cc1ccccc1`, 3.22%. The result for `CCCN(CC(=O)Nc1ccccc1C)C(=O)COc1c(Cl)cccc1Cl` reads 4.81%; that for `C=CCN=c1scc(-c2ccc(F)cc2)n1/N=C/c1ccccn1`, 11%.
